This is one part of the list.
tested on: PfHDP1 homeodomain (GST-tagged); test: gcPBM binding intensity (ln(normalized median fluorescence intensity)); higher = stronger DNA binding
Procedure, shortened: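 Plasmodium falciparum DNA-binding domains carrying a GST tag were expressed in E. coli and applied for 1 h, at about 25 μg on average, to an Agilent 4 × 180k array. The array held primer-extended double-stranded 36-bp intergenic genomic probes together with negative controls, and binding took place in 1× PBS with 1% milk, 0.2 mg/ml BSA, 0.5% salmon testes DNA and 0.03% Triton X-100. An Alexa488 anti-GST antibody detected bound protein, and the array was scanned at 488 nm. Binding intensity is taken as the highest Masliner-normalised natural-log median intensity across replicate spots of either probe orientation.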

Sequence | gcPBM binding intensity (ln)
CTTTTTTTCCATTAAGCATGCACATTCATATTTACT [TGCATGCA_site170] | 8.41
ATATATATATATATATGTACATATGTTAATCTGCAT [XGTACX_site1068] | 9.27
TATATATATATAGGTTGTACATTTTGATGTTTACGT [XGTACX_site5503] | 9.13
GTTTATTTATTATAATGTACATTAGTCTGAGGAGTT [XGTACX_site4035] | 7.19
TTTTATTTATATATAGTGCATATTATTATAAAACAA | 8.66
TACTTTTTTTTTTTTTTTTTTTTTTTTTCCCTTTTT [CACACA_negctrl_site761] | 5.85
CCTTTTTTTTTTTTATGTACTAAAATAAAATTAGAA [XGTACX_site5956] | 6.14
TTTTTTTTGATAAGTTGTACAATGATATATATCCCT [XGTACX_site3560] | 6.42
TATATTTTATATTGGTGTACAATTTTTTTTTTTTTT [XGTACX_site4291] | 6.45
ATAGTTTAATTTATATGTACATATAATATTGATTTG [XGTACX_site7520] | 6.68
AAATATTTATATGTTACACACTGTTTATAACTTTCT [CACACA_site6752] | 6.34
ATAAATGACAGACACACACACAAAAAAAAAAAACAA [CACACA_site2626] | 6.49
ACCCTATCTGTAACTACACACCGCATATTGTTTACT [CACACA_site5661] | 7.2
TTTTTATCTTTGCTGTGTACATAAATAAAAATAACT [XGTACX_site7625] | 6.66
CTTCTGTAATTATCACGTACATATAATAATTAAAAT [XGTACX_site8973] | 6.65
TTGTGTTTGAAAAAATGTACATGTGTCTTACAACAA [XGTACX_site8371] | 6.32
TTATACAGATATTTAACACACATTTTATAAAGTGCC [CACACA_site4851] | 6.34
TTACGCGCTTATTACACACACATACAAATAAGGATT [CACACA_site3486] | 7.21
AAAAATAAAAAAAATACATGCAATGAAACATTTATT [TGCATGCA_site263] | 6.14

Sequence | gcPBM binding intensity (ln)
AACAAAATAAAAAAAACATGCAAGAATTCTTATATG [TGCATGCA_site714] | 6.53
ATTTGTATTGTATATGCACACATAGAACACTTTTTT [CACACA_site9373] | 9.69
TATATATATTTATGTACACACACACCGATAAATAAA [CACACA_site4404] | 7.22
TATAACATATGACACACACACATACATACACAAAAA [CACACA_site6935] | 7.23
ATAACAACCCAATGTTGTACATTTAAATATAACGTA [XGTACX_site7114] | 6.48
TTCTAAAATTATATAGTGCAATTATATTAATTTTTC | 8.98
TTTTATACATAAATATGTACGTATATATAATGAATT [XGTACX_site1337] | 6.31
ACAATTTATATTATATGTACTTAAAAAGTTCGTAAA [XGTACX_site6421] | 6.09
GCCTCATCGTAGCAGTGTACGTTTTTTTTTTTTTTT [XGTACX_site8648] | 6.73
TAATAAATGGCTAGTTGTACAGAAATATAAATATTA [XGTACX_site4579] | 5.99
AGATTCAAAAATAAAACATGCAAAAATAAAACGTGC [TGCATGCA_site501] | 7.02
ATAAATAAAAACACAAAACAAAACAAAACAAAACAA [CACACA_negctrl_site1257] | 6.61
ATATATATTGTACTAGTGCATATATATACATATATT | 8.57
TTTCATCTATATGAAACACACAAAGGAAAAAAAATT [CACACA_site7869] | 6.77
ATATATATAATATAATGTACATATATTTTATTTTTA [XGTACX_site3819] | 6.89
ACGTATTAGATAAATACACACACAAGCATATATTTT [CACACA_site9135] | 6.57
TAATGTATTATATTTAGTACATATAAAAATAATTTT [XGTACX_site6886] | 6.24
ATATATTAATTTAATTGTACGAATAAAAAAAAAAAA [XGTACX_site223] | 6.71
TATATACATTTATGTACACACACATATATGTATATT [CACACA_site8971] | 6.61

Sequence | gcPBM binding intensity (ln)
AAAGCACCCAAGAATACACACAAATATTATAAAAAA [CACACA_site111] | 6.66
AAAATTGTTATTTTATGTACTTATATTTATTTATTT [XGTACX_site3478] | 6
GTAGGATTTTCTTTTGTGCGCAATATAAAAAGAAAA [GTGCAC_site9514] | 7.6
AAAAGGTATGTTATACATAGATATGCACATATATGT [TGCATGCA_negctrl_site96] | 9.64
ATTAATATAAAAAGGTAAATGGATGTAATATATATA [XGTACX_negctrl_site2] | 7.03
TCGTAATTTTTTTTTATATATTAGGAATTTATAAAA [XGTACX_negctrl_site409] | 6.18
TAATACCATTGTCATGCATGCACATTATTACTCTAA [TGCATGCA_site160] | 7.97
ATATTATATTTCTTTTGTACATATTATATAATATAT [XGTACX_site7198] | 6.94
TTTTTTTTGTGTATTTGTACATAATATATATATATA [XGTACX_site7092] | 8.47
TGAAAAGGAAAATTTTGTACATATACATCAAGGATA [XGTACX_site656] | 6.38
TACATGAATAAACTTACACACACCCATGCATACATA [CACACA_site97] | 6.95
AAAAAAAAGAATTTACGTACTTATTATTTATATTTT [XGTACX_site5701] | 6.02
ACTTTTTATTTTTTACTATATATATATATATATATG [TGCATGCA_negctrl_site463] | 7.59
ACTAACATATATTCAACACACATATACCTTCAACCC [CACACA_site3011] | 6.86
TTTTACAAAGTATGATGTACAAGTATATATAAATAT [XGTACX_site2072] | 6.26
CCCATTTAATATTGAGTGCATTTAAATAAATGTATT | 8.38
TATATATATATATACACACACACATATATATATATA [CACACA_site774] | 9.31
TTATTTTCAAAATGTTGTACACACAAAAAAAAAAAA [XGTACX_site3151] | 6.53
TTTTTTTTTTTTTTTGCATGCAGGTTTTTACCCCTT [TGCATGCA_site381] | 6.26

— the supplement of paper PMC11417369
